Laboratory results: patent US20180289802A1 (CELGENE, published 2018)

What was measured:
[1] = biological target: T1, human PD-1 (soluble / purified antigen, construct not stated) (human, UniProt Q15116 part only, limits assumed); assay: Binding ELISA; drug substance Batch B, -20°C, 3 months
T1 construct: also called soluble antigen

[2] = biological target: T1, human PD-1 (soluble / purified antigen, …); assay: Binding ELISA; drug substance Batch A, -70°C, 1 month
[3] = biological target: T1, human PD-1 (soluble / purified antigen, …); assay: Binding ELISA; drug substance Batch A, 5°C, T = 0
[4] = biological target: T1, human PD-1 (soluble / purified antigen, …); assay: Binding ELISA; drug substance Batch A, 25°C/60% RH, T = 0
[5] = biological target: T1, human PD-1 (soluble / purified antigen, …); assay: Binding ELISA; drug substance Batch A, -20°C, 1 month
[6] = biological target: T1, human PD-1 (soluble / purified antigen, …); assay: Binding ELISA; drug product Batch A, 5°C inverted, 3 months
[7] = biological target: T1, human PD-1 (soluble / purified antigen, …); assay: Binding ELISA; drug product Batch A, 25°C/60% RH upright, 1 month
[8] = biological target: T1, human PD-1 (soluble / purified antigen, …); assay: Binding ELISA; drug product Batch B, 25°C/60% RH inverted, 0.5 month
[9] = biological target: T1, human PD-1 (soluble / purified antigen, …); assay: Binding ELISA; drug substance Batch B, 25°C/60% RH, 0.5 month
[10] = biological target: T2, human PD-1 extracellular domain (residues 32-160), expressed in E. coli and refolded (human, UniProt Q15116 part only); assay: Biacore T200; antibody captured on Fc-specific anti-human IgG; human PD-1 (32-160) flowed at 100 nM to 200 pM
T2 construct: also called PD1_002; internally produced human PD1 antigen

[11] = biological target: T1, human PD-1 (soluble / purified antigen, …); assay: Binding ELISA; drug substance Batch B, -70°C, 3 months
[12] = biological target: T1, human PD-1 (soluble / purified antigen, …); assay: Binding ELISA; drug substance Batch A, 25°C/60% RH, 1 month
[13] = biological target: T1, human PD-1 (soluble / purified antigen, …); assay: Binding ELISA; drug product Batch B, 25°C/60% RH upright, initial
[14] = biological target: T1, human PD-1 (soluble / purified antigen, …); assay: Binding ELISA; drug substance Batch B, -20°C, T = 0
[15] = biological target: T1, human PD-1 (soluble / purified antigen, …); assay: Binding ELISA; drug product Batch B per paragraph 782 (table head prints Batch A), 5°C upright, initial
[16] = biological target: T1, human PD-1 (soluble / purified antigen, …); assay: Binding ELISA; drug product Batch B per paragraph 782 (table head prints Batch A), 5°C upright, 1 month
[17] = biological target: T1, human PD-1 (soluble / purified antigen, …); assay: Binding ELISA; drug product Batch A, 25°C/60% RH inverted, 0.5 month
[18] = biological target: T1, human PD-1 (soluble / purified antigen, …); assay: Binding ELISA; drug product Batch A, -20°C, initial
[19] = biological target: T1, human PD-1 (soluble / purified antigen, …); assay: Binding ELISA; drug substance Batch B, 5°C, 3 months
[20] = biological target: T2, human PD-1 extracellular domain …; assay: Biacore T200, antibody captured on protein A or anti-human IgG, human PD1 antigen 0.3 to 200 nM, 1:1 fit; range over formulations and storage conditions
[21] = biological target: T1, human PD-1 (soluble / purified antigen, …); assay: Binding ELISA; drug product Batch B, 25°C/60% RH upright, 1 month
[22] = biological target: T1, human PD-1 (soluble / purified antigen, …); assay: Binding ELISA; drug product Batch A, 25°C/60% RH upright, 0.5 month
[23] = biological target: T1, human PD-1 (soluble / purified antigen, …); assay: Binding ELISA; drug product Batch B, 25°C/60% RH inverted, 1 month
[24] = biological target: T1, human PD-1 (soluble / purified antigen, …); assay: Binding ELISA; drug substance Batch B, 5°C, T = 0
[25] = biological target: T1, human PD-1 (soluble / purified antigen, …); assay: Binding ELISA; drug substance Batch B, -70°C, 1 month
[26] = biological target: T1, human PD-1 (soluble / purified antigen, …); assay: Binding ELISA; drug product Batch A, 5°C inverted, 1 month

Binding ELISA, ratio of Reference EC50/Sample EC50 [1]: 66%
Binding ELISA, ratio of Reference EC50/Sample EC50 [2]: 80%
Binding ELISA, ratio of Reference EC50/Sample EC50 [3]: 99%
Binding ELISA, ratio of Reference EC50/Sample EC50 [4]: 99%
Binding ELISA, ratio of Reference EC50/Sample EC50 [5]: 79%
Binding ELISA, ratio of Reference EC50/Sample EC50 [6]: 97%
Binding ELISA, ratio of Reference EC50/Sample EC50 [7]: 74%
Binding ELISA, ratio of Reference EC50/Sample EC50 [8]: 76%
Binding ELISA, ratio of Reference EC50/Sample EC50 [9]: 72%
Kd [10]: ~19 nM
Binding ELISA, ratio of Reference EC50/Sample EC50 [11]: 68%
Binding ELISA, ratio of Reference EC50/Sample EC50 [12]: 83%
Binding ELISA, ratio of Reference EC50/Sample EC50 [13]: 82%
Binding ELISA, ratio of Reference EC50/Sample EC50 [14]: 76%
Binding ELISA, ratio of Reference EC50/Sample EC50 [15]: 82%
Binding ELISA, ratio of Reference EC50/Sample EC50 [16]: 107%
Binding ELISA, ratio of Reference EC50/Sample EC50 [17]: 102%
Binding ELISA, ratio of Reference EC50/Sample EC50 [18]: 86%
Binding ELISA, ratio of Reference EC50/Sample EC50 [19]: 74%
Kd [20]: 25.4 to 27.2 nM
Binding ELISA, ratio of Reference EC50/Sample EC50 [21]: 92%
Binding ELISA, ratio of Reference EC50/Sample EC50 [22]: 91%
Binding ELISA, ratio of Reference EC50/Sample EC50 [23]: 78%
Binding ELISA, ratio of Reference EC50/Sample EC50 [24]: 76%
Binding ELISA, ratio of Reference EC50/Sample EC50 [25]: 84%
Binding ELISA, ratio of Reference EC50/Sample EC50 [26]: 103%
B1: PD1AB-6-K3 (antibody, human IgG1, kappa)
heavy: EVQLVQSGAEVKKPGATVKISCKASGFNIKDTYMHWVQQAPGKGLEWMGRIDPANGDRKYDPKFQGRVTITADTSTDTAYMELSSLRSEDTAVYYCARSGPVYYYGSSYVMDYWGQGTTVTVSS[human IgG1 constant region with changes not written out]
light: DIVMTQSPDSLAVSLGERATINCKSGQSVLYSSNQKNFLAWYQQKPGQPPKLLIYWASTRESGVPDRFSGSGSGTDFTLTISSLQAEDVAVYYCHQYLYSWTFGQGTKLEIKRTVAAPSVFIFPPSDEQLKSGTASVVCLLNNFYPREAKVQWKVDNALQSGNSQESVTEQDSKDSTYSLSSTLTLSKADYEKHKVYACEVTHQGLSSPVTKSFNRGEC
notes: also called PD1AB-6-IgG1-K322A; PD1AB-6-K322A
